In all, about 410,000 compounds went through this assay and about 6,400 (1.6%) were called active. Inconclusive results, whose numbers are uncertain, are shown with a selection of clear calls. The call rests on the fitted dose curve; in most records, active means well fitted inhibition curve with a large enough effect; inconclusive means small, poorly fitted or top-dose-only effect; inactive means no such curve, though single readings can be large or run the other way. A potency beside an inconclusive call is a rough fit, not a confirmed value.
biological target: Glucagon-like peptide 1 receptor (Homo sapiens) (UniProt P43220); assay: qHTS of GLP-1 Receptor Inverse Agonists (Inhibition Mode); settings: HEK293 GLP-1R CRE-luciferase, luminescence, 24 h, GLP-1R form is constitutively active; activity change, negative = inhibition: at 38.3 µM (top of the series) unless noted; further: nearly all actives have a fitted effect of over 55% in size
UniProt P43220, sequence (P43220 whole entry, looked up): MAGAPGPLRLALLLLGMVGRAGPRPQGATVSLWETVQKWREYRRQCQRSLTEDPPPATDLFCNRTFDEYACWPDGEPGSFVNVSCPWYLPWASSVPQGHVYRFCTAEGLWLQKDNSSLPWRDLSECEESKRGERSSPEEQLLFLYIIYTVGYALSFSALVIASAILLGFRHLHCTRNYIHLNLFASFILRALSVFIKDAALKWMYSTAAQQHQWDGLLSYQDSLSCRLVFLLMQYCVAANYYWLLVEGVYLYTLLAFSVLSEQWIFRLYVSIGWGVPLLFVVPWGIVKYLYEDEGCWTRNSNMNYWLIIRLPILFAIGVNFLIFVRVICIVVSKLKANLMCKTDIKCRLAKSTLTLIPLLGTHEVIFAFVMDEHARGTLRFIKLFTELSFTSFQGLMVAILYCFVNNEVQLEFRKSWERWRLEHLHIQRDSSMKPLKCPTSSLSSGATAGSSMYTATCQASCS
How it was run: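 Cells are plated, allowed 12 hours at 37 deg C, then treated with compounds for 24 hr before luciferase detection reagent is added and luminescence is read after 12 min at room temperature. The HEK293 line carries constitutively active GLP-1R with a cAMP-responsive reporter.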
On the % scale 0 is the no-effect control and ±100 the full control effect; potency means the concentration at half of the fitted maximal effect; tags describe the fitted curve by direction and shape.

Compound | activity change, negative = inhibition | Potency
Cc1ccc(-c2n[nH]c(=S)n2/N=C/c2ccncc2)cc1 | inactive: -31% | 
CCOC(=O)c1ccc(NC(=O)c2cccc3c(=O)c4c([nH]c23)CCCC4)cc1 | inactive: 8.32% | 
Cc1nnc(NCCO)c2ccccc12 | inactive: 20.4% | 
CC(=O)c1cccc(CN(C)CC2CCCN(CCc3ccccc3C)C2)c1 (centres undefined) |  | inconclusive: 7.08 µM [inhibitor, partial curve, poor fit]
Cc1ccc(S(=O)(=O)N2CCN(Cc3cc(=O)n4ccccc4n3)CC2)c(C)c1 | inactive: -15.9% | 
NNc1nc2c(Cl)ccc(Cl)c2s1 |  | inconclusive: 2.82 µM [inhibitor, partial curve, poor fit]
Cc1ccc(N(CC(O)CN2CCCCC2)S(=O)(=O)c2ccc(C)cc2)cc1 (centres undefined) |  | inconclusive: 10 µM [inhibitor, single point]
C/C(N)=C(/C#N)C(=O)COC(=O)CC12CC3CC(CC(C3)C1)C2 |  | inconclusive: 12.6 µM [inhibitor, partial curve, poor fit]
Cc1c(C(=O)N(C)c2ccccc2)sc2nc(-c3ccc(F)cc3)cn12 | inactive: -14.4% | 
CCc1ccccc1NC(=O)CN(C)C(=O)c1cc(C2CC2)nn1-c1ccccc1 |  | inconclusive: 11.2 µM [inhibitor, partial curve, poor fit]
Cc1cc(C)cc(NC(c2cccc(Cl)c2)c2nnc(-c3ccccc3)o2)c1 (centres undefined) |  | inconclusive: 11.2 µM [inhibitor, single point]
CCOc1cc(C(=S)N2CCCCC2)ccc1OS(=O)(=O)c1ccc(Br)cc1 |  | inconclusive: 28.2 µM [inhibitor, single point]
CC1=CCC[C@@H]2[C@@](C)(CC/C(C)=C/C(=O)O)[C@H](C)CC[C@@]12C |  | inconclusive: 11.2 µM [inhibitor, single point]
CCN(CC)c1nc(Oc2ccc(C(=O)OC)cc2)nc(N2CCOCC2)n1 |  | inconclusive: 28.2 µM [inhibitor, single point]
CCCCOc1ccc(S(=O)(=O)Nc2ccc(-c3ccc(N4CCCCC4)nn3)cc2)cc1 |  | inconclusive: 10 µM [inhibitor, partial curve, poor fit]
CCc1ccccc1NC(=O)CN1CCN(C(=O)C(C)NC(=O)c2ccc(Cl)cc2)CC1 (centres undefined) | inactive: -0.0147% | 
CCC(=O)Nc1cc(-c2nc3cc(C)cc(C)c3o2)ccc1C | inactive: 1.95% | 
Cc1ccc(CSCCNC(=O)CSCc2ccc([N+](=O)[O-])cc2)cc1 |  | inconclusive: 3.16 µM [inhibitor, single point]
CN(CC(=O)Nc1cccc(C(F)(F)F)c1)Cc1ccccc1 |  | inconclusive: 11.2 µM [inhibitor, partial curve, poor fit]
CCOC(=O)C(=O)N(C)c1c(CC)nc2c(OCc3cc(Cl)cc(Cl)c3)cccn12 |  | inconclusive: 15.8 µM [inhibitor, partial curve, poor fit]
Cc1cc(Br)ccc1OCCOCCN1CCCC1 |  | inconclusive: 11.2 µM [inhibitor, partial curve, poor fit]
COc1cccc(C(=O)COc2cccc(NC(=O)c3cccc([N+](=O)[O-])c3)c2)c1 |  | inconclusive: 8.91 µM [inhibitor, partial curve, poor fit]

Compound | activity change, negative = inhibition | Potency
O=C1N/C(=N/N=C/c2ccccc2O)SC1Cc1ccc(F)cc1 (centres undefined) |  | inconclusive: 1.41 µM [inhibitor, full curve, poor fit]
COC(=O)C1=NN(C(=O)c2cccc(Br)c2)C(O)(c2ccc(Cl)cc2)C1 (centres undefined) |  | inconclusive: 10 µM [inhibitor, single point]
COc1ccc(CNC(=O)c2cnn(-c3ccc(OC)cc3)c2C2CCN(C(=O)OC(C)(C)C)CC2)cc1 |  | inconclusive: 20 µM [inhibitor, single point]
CCN(CC)C(=O)C1=C(C)N(Cc2ccc(C(C)(C)C)cc2)C(=O)C(CC(=O)NC2CCCCC2)C1 (centres undefined) |  | inconclusive: 22.4 µM [inhibitor, single point]
NC(=O)[C@H]1CC2(CC(c3cccc(NC(=O)COc4ccc(Cl)cc4)c3)=NO2)CN1C(=O)c1ccc(Cl)cc1 (some centres undefined) |  | inconclusive: 8.91 µM [inhibitor, partial curve, poor fit]
O=C(NC(=S)Nc1ccc(S(=O)(=O)Nc2nccs2)cc1)c1ccccc1 | inactive: 14.6% | 
CN(C)CCN(C(=O)/C=C/c1cccs1)c1nc2ccc(F)cc2s1 |  | inconclusive: 3.16 µM [inhibitor, partial curve, poor fit]
CCOc1ccccc1N1CCN(C(=S)Nc2ccc(S(N)(=O)=O)cc2)CC1 |  | inconclusive: 14.1 µM [inhibitor, partial curve, poor fit]
COc1ccccc1/C=C(/CC(=O)NCc1ccccc1)c1nc2ccccc2s1 |  | inconclusive: 8.91 µM [inhibitor, partial curve, poor fit]
CCc1cccc(N=c2c([N+](=O)[O-])nn(-c3ccc4c(c3)OCCO4)n2O)c1 |  | inconclusive: 31.6 µM [inhibitor, single point]
CCOc1cc(C)c(Cl)cc1S(=O)(=O)NCc1ccc2c(c1)OCO2 |  | inconclusive: 12.6 µM [inhibitor, partial curve, poor fit]
Cc1cc(C)c2ccc(N)nc2c1O |  | active: 12.6 µM
CCN(CC)c1ccc(N=C2C=CC(=O)C=C2NC(C)=O)cc1 | inactive: -4.46% | 
O=S(=O)(NCc1ccco1)c1cccc(S(=O)(=O)N2CCCCC2)c1 |  | inconclusive: 28.2 µM [inhibitor, single point]
CCC(C)c1ccc(NC(=S)NCCn2cc(Br)cn2)cc1 (centres undefined) |  | inconclusive: 12.6 µM [inhibitor, partial curve, poor fit]
O=C(c1ccccc1C(=O)N1CCN(c2ccccc2F)CC1)N1CCN(c2ccccc2F)CC1 |  | inconclusive: 22.4 µM [inhibitor, single point]
COc1ccc(-n2nc(C(=O)NCC(=O)Nc3cc(OC)c(OC)c(OC)c3)c3ccccc3c2=O)cc1 |  | inconclusive: 1.58 µM [inhibitor, full curve]
Cc1ccc(C)c(N2CCN(C(=O)Cc3cn(C)c4ccccc34)CC2)c1 |  | inconclusive: 31.6 µM [inhibitor, partial curve, poor fit]
CC1(C)CC(NC(=O)c2cc(COc3cccc(C(F)(F)F)c3)on2)CCO1 (centres undefined) |  | inconclusive: 12.6 µM [inhibitor, single point]
O=C(CSc1nc2c([nH]c3ccccc32)c(=O)n1-c1ccccc1)NCC1CCCO1 (centres undefined) | inactive: 20.1% | 
CCCN(CCC)c1nc(NC2CCN(C(=O)OCC)CC2)nc(OC)n1 |  | active: 2.82 µM
CC1(C(=O)Nc2ccccc2F)CCN1C(=O)Cc1ccc(-c2ccccc2)cc1 (centres undefined) |  | inconclusive: 11.2 µM [inhibitor, single point]

Compound | activity change, negative = inhibition | Potency
CC1=NN(Cc2cc(C(C)(C)C)c(O)c(C(C)(C)C)c2)C(=O)C1 |  | inconclusive: 10 µM [inhibitor, partial curve, poor fit]
Cc1[nH]n(-c2ccccc2)c(=O)c1C=NC1CCCCCC1 |  | inconclusive: 14.1 µM [inhibitor, single point]
Cc1onc(-c2c(F)cccc2Cl)c1C(=O)OCC(=O)Nc1cccc(S(=O)(=O)N(C)C)c1 |  | inconclusive: 10 µM [inhibitor, single point]
COc1ccc(S(=O)(=O)NCC2CCCN(Cc3cn(C)nc3C)C2)cc1 (centres undefined) |  | inconclusive: 12.6 µM [inhibitor, single point]
CCN1C(=O)[C@@H]2[C@@H](c3ccc(SC4CCCCC4)c(OC)c3)N3CCCC[C@@]3(C(=O)OC)[C@@H]2C1=O |  | inconclusive: 20 µM [inhibitor, single point]
COc1ccc(/C=N/Nc2nccnc2Cl)cc1 |  | active: 11.2 µM
CCC(C)Sc1nc2c(c(=O)[nH]c(=O)n2C)n1CC(O)COc1cccc2ccccc12 (centres undefined) | inactive: 7.64% | 
CCN(CC)c1nn2c(=O)c(C(=O)NCc3cccc(OC)c3OC)cnc2s1 | inactive: 12.2% | 
CCn1c(CSCc2ccccc2)n[nH]c1=S | inactive: -14% | 
Cc1ccn2c(NC(=O)C(C)(C)Oc3ccc(Cl)cc3)c(-c3cccs3)nc2c1 |  | inconclusive: 12.6 µM [inhibitor, partial curve, poor fit]
CCCc1nnc(NC(=S)Nc2ccccc2)s1 | inconclusive: -86% [inhibitor] [at 7.66 µM] | 
CCc1nc2ccc(C(=O)NCCCn3ccnc3)cn2c1N(C)CCC(C)C |  | inconclusive: 31.6 µM [inhibitor, single point]
O=C(/C=C/c1ccc([N+](=O)[O-])cc1)c1cccs1 | inactive: 18.3% | 
Cc1ccccc1C(=O)c1cccn1CC(=O)NC(C)c1ccc2c(c1)OCCO2 (centres undefined) |  | inconclusive: 7.94 µM [inhibitor, partial curve, poor fit]
COc1ccc(C(=O)NCC(=O)OCC(=O)N2CCc3ccccc32)cc1 | inactive: 12.8% | 
NC(N)=Nc1nc(-c2ccccc2)c2cc(F)ccc2n1 |  | inconclusive: 28.2 µM [inhibitor, single point]
Cc1ccc(NC(=O)CSc2ncc3c(n2)-c2ccccc2N(C)S3(=O)=O)c(Cl)c1 |  | inconclusive: 1 µM [inhibitor, full curve, poor fit]
COc1ccc(CN(C)c2ccc(-c3nc(C)no3)cc2[N+](=O)[O-])cc1 |  | inconclusive: 5.01 µM [inhibitor, partial curve]
Cc1c(C)c2cccnc2c2ncccc12 |  | inconclusive: 0.562 µM [inhibitor, full curve, poor fit]
O=C1c2ccccc2C(=O)N1OS(=O)(=O)c1ccc(F)cc1 | inactive: 16% | 
